We go through 195 variants from a collection of fitness landscapes (doi:10.1126/science.1257360).

To fix the notation:
B1: PhoQ; a variant is named by its letters at X, in order, P23837 (parent)
chain: MKKLLRLFFPLSLRVRFLLATAAVVLVLSLAYGMVALIGYSVSFDKTTFRLLRGESNLFYTLAKWENNKLHVELPENIDKQSPTMTLIYDENGQLLWAQRDVPWLMKMIQPDWLKSNGFHEIEADVNDTSLLLSGDHSIQQQLQEVREDDDDAEMTHSVAVNVYPATSRMPKLTIVVVDTIPVELKSSYMVWSWFIYVLSANLLLVIPLLWVAAWWSLRPIEALAKEVRELEEHNRELLNPATTRELTSLVRNLNRLLKSERERYDKYRTTLTDLTHSLKTPLXXLQXXLRSLRSEKMSVSDAEPVMLEQISRISQQIGYYLHRASMRGGTLLSRELHPVAPLLDNLTSALNKVYQRKGVNISLDISPEISFVGEQNDFVEVMGNVLDNACKYCLEFVEISARQTDEHLYIVVEDDGPGIPLSKREVIFDRGQRVDTLRPGQGVGLAVAREITEQYEGKIVAGESMLGGARMEVIFGRQHSAPKDE

The other results are listed elsewhere or left out.

This assay covers variants of B1. Nature of the assay: enrichment ratio after two sorts for PhoP signalling (ratio (wild type AVST 3.29)); higher = more functional. Conditions: with PhoP (E. coli).
With DCIA, the enrichment ratio is at most 0.25.

With ITHC, the enrichment ratio was at most 0.25.

With QMLR, the enrichment ratio was at most 0.25. Under VARL stands at most 0.25; under IQKT, at most 0.25; under PHIL, at most 0.25. Under ETMW stands at most 0.25.

As for DWGC, the enrichment ratio was at most 0.25. Under FLRT stands at most 0.25; under DCTY, at most 0.25; under ACRM, at most 0.25. Next, YGAC: at most 0.25; NDRH: at most 0.25; EFQV: at most 0.25. Turning to LFTY, the enrichment ratio is at most 0.25. Next, QWVH: at most 0.25; SFKP: at most 0.25. For the variant DCTC, the enrichment ratio is at most 0.25. Next, DPLD: at most 0.25; VMFW: at most 0.25; YECV: 22.8.

With YITP, the enrichment ratio was at most 0.25. Under PCFT stands at most 0.25; under VSGL, 0.557; under EKAA, at most 0.25. Turning to WEEL, the enrichment ratio was at most 0.25. Under AFRR stands at most 0.25.

Consider EGPR, for which the enrichment ratio is at most 0.25.

For the variant SYSK, the enrichment ratio was at most 0.25. GSGP: the enrichment ratio was at most 0.25. Next, HVYP: at most 0.25; YACW: at most 0.25; VAYF: at most 0.25. Under SYWH stands at most 0.25; under TYWL, at most 0.25. In the case of TRVR, the enrichment ratio was at most 0.25. On to TFTL, for which the enrichment ratio was determined as 8.74.

Take NRPS: the enrichment ratio is at most 0.25.

For the variant FLDG, the enrichment ratio was at most 0.25.

Turning to PMIS, the enrichment ratio is at most 0.25.

Consider SQTK, for which the enrichment ratio was at most 0.25. On to HLRA, for which the enrichment ratio is at most 0.25. Next, LWGM: at most 0.25; FPTW: at most 0.25.

Regarding QDTE, the enrichment ratio is at most 0.25. Next, RCFG: at most 0.25; FAFQ: at most 0.25. Turning to WDVT, the enrichment ratio is at most 0.25. Under PIYI stands at most 0.25. Regarding SHRQ, the enrichment ratio was at most 0.25. Next, MQLG: 22; HSCP: at most 0.25.

Take RTPA: the enrichment ratio was at most 0.25.

Turning to EERR, the enrichment ratio was at most 0.25.

Regarding DTHW, the enrichment ratio was at most 0.25.

In the case of VDAV, the enrichment ratio is at most 0.25.

TVPQ: the enrichment ratio is at most 0.25. Next, VMLA: at most 0.25; GHWT: at most 0.25; KQYL: at most 0.25. With HTAG, the enrichment ratio is at most 0.25.

As to RQDF, the enrichment ratio is at most 0.25. Regarding VNDA, the enrichment ratio was at most 0.25.

With KQWW, the enrichment ratio was at most 0.25. Under MIQF stands at most 0.25; under IRMI, at most 0.25; under WYHL, at most 0.25.

As to NTKD, the enrichment ratio is at most 0.25. Next, LTIM: at most 0.25; KVPH: at most 0.25. Next, EELF: at most 0.25; SCDP: at most 0.25. Under KAML stands at most 0.25; under MMMG, at most 0.25; under WFIG, at most 0.25. As to NHGP, the enrichment ratio is at most 0.25. Regarding MDNM, the enrichment ratio was at most 0.25.

Take IYGH: the enrichment ratio is at most 0.25.

As for TYDS, the enrichment ratio was at most 0.25.

As to GKAI, the enrichment ratio was at most 0.25. Turning to REVR, the enrichment ratio is at most 0.25. Regarding VYFP, the enrichment ratio was at most 0.25. Next, TPRK: at most 0.25. Under YDHA stands at most 0.25; under PRLG, at most 0.25. Next, WNPP: at most 0.25; EKVS: at most 0.25; AFDL: at most 0.25.

As to KYKI, the enrichment ratio was at most 0.25. Next, NDNN: at most 0.25; QHQK: at most 0.25; RVTF: at most 0.25. As for SNWC, the enrichment ratio was at most 0.25. Next, PGAG: at most 0.25; KRPP: 1.72. On to NAVF, for which the enrichment ratio is at most 0.25.

On to NPFI, for which the enrichment ratio was at most 0.25. As to QIIN, the enrichment ratio is at most 0.25. Under MTHS stands 0.279; under KQHM, at most 0.25.

For YDFV, the enrichment ratio was at most 0.25. For NLES, the enrichment ratio was at most 0.25. Next, MCHK: at most 0.25.

LNGE: the enrichment ratio is at most 0.25.

For the variant PWDH, the enrichment ratio is at most 0.25. Under PCNL stands at most 0.25.

RCYI: the enrichment ratio is at most 0.25.

Consider TSYM, for which the enrichment ratio turned out to be 7.76. Under QYFL stands at most 0.25. Next, SWMF: at most 0.25. Next, QFTH: at most 0.25.

As for GCSS, the enrichment ratio was 5.47. Next, QYAL: at most 0.25; YIMW: at most 0.25. Next, TMKD: at most 0.25; KNDT: at most 0.25. Under HWYC stands at most 0.25.

Take QTFS: the enrichment ratio is at most 0.25. KMAE: the enrichment ratio was at most 0.25. Under SYSI stands 0.303; under YYIR, at most 0.25; under TYVA, at most 0.25. Under PFNC stands at most 0.25; under ANAW, at most 0.25. Under PPNV stands at most 0.25; under SKFI, at most 0.25; under MSMK, at most 0.25. FRLW: the enrichment ratio was at most 0.25. Under LGLK stands at most 0.25; under VQNI, at most 0.25.

Turning to MFKK, the enrichment ratio was at most 0.25. Consider EGCC, for which the enrichment ratio was at most 0.25. Next, FRVP: at most 0.25; MFAP: at most 0.25; WPMQ: at most 0.25. Next, EGGT: at most 0.25; RRHS: at most 0.25; IQSY: at most 0.25. Next, NHVS: at most 0.25; FFKH: at most 0.25; VLYM: at most 0.25. As to VPCA, the enrichment ratio was at most 0.25. Under IFES stands at most 0.25; under YVVW, at most 0.25.

Turning to SQGG, the enrichment ratio worked out at 6.89.

Consider MSQD, for which the enrichment ratio was at most 0.25.

On to NIVC, for which the enrichment ratio is at most 0.25. As for LSCG, the enrichment ratio is at most 0.25.

Regarding PRTI, the enrichment ratio is at most 0.25. Under DCYL stands at most 0.25. Under VHHP stands at most 0.25. For MLWC, the enrichment ratio is at most 0.25. Next, SMWR: at most 0.25. For the variant AHRY, the enrichment ratio was at most 0.25. As to GKQP, the enrichment ratio is at most 0.25. Next, IESA: at most 0.25; GCTP: at most 0.25; WYKW: at most 0.25. With SGKC, the enrichment ratio was at most 0.25. Next, IEYA: at most 0.25; NSII: at most 0.25.

Regarding NDTA, the enrichment ratio was at most 0.25. Next, LCHF: 0.306.

Turning to LSPM, the enrichment ratio was at most 0.25. Under GPSK stands at most 0.25; under IVWT, at most 0.25. Under DSEA stands at most 0.25; under RDCQ, at most 0.25; under KNTF, at most 0.25. In the case of DFHM, the enrichment ratio is at most 0.25. Take RVSS: the enrichment ratio was at most 0.25. For VYLP, the enrichment ratio is at most 0.25. Under PHGI stands at most 0.25; under ERVP, at most 0.25; under DKIC, at most 0.25. Take QLWW: the enrichment ratio was at most 0.25. For FAQN, the enrichment ratio was at most 0.25.

On to PCFQ, for which the enrichment ratio was at most 0.25. Next, MWYC: at most 0.25; ILMP: at most 0.25. Next, MVPC: at most 0.25.

On to WMWR, for which the enrichment ratio is at most 0.25. Under DDPV stands at most 0.25. Under ECDD stands at most 0.25; under VIKL, at most 0.25. Consider GMGP, for which the enrichment ratio is at most 0.25. Under LRVC stands at most 0.25. Next, MMGM: 1.99.

Consider HYSC, for which the enrichment ratio was at most 0.25.

On to EGIM, for which the enrichment ratio was at most 0.25. Next, GTHN: at most 0.25. Next, PNMW: at most 0.25; TCPD: at most 0.25. As for VDLC, the enrichment ratio is at most 0.25. Take FFLS: the enrichment ratio was at most 0.25.
